Where a chain is given by its changes, count along the chain named. This is one part of the list.

The labels stand for the following.
T1: RBFOX1 RRM (Homo sapiens, UniProt Q9NWB1 109-208)
T1 sequence: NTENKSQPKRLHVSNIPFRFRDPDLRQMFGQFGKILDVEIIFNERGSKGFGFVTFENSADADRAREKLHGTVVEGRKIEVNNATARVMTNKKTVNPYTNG

B1: CAUAGGC (DNA:RNA)
RNA: GGGAGACCGGAAUUCAGAUUGUCCCAUAGGCUUAAAUCCCGUCGUAGCCACCA
DNA 1: CAATCTGAATTCCGGTCTCCC
DNA 2: TGGTGGCTACGACGGGATT
B2: GCUAGAU (DNA:RNA)
RNA: B1 RNA with C25G, A26C, G30A, C31U
DNA 1: CAATCTGAATTCCGGTCTCCC
DNA 2: TGGTGGCTACGACGGGATT
B3: AAGUAGA (DNA:RNA)
RNA: B1 RNA with C25A, U27G, A28U, G29A, C31A
DNA 1: CAATCTGAATTCCGGTCTCCC
DNA 2: TGGTGGCTACGACGGGATT
B4: AUCAGUA (DNA:RNA)
RNA: B1 RNA with C25A, A26U, U27C, G30U, C31A
DNA 1: CAATCTGAATTCCGGTCTCCC
DNA 2: TGGTGGCTACGACGGGATT
B5: GUUCAAG (DNA:RNA)
RNA: B1 RNA with C25G, A26U, A28C, G29A, G30A, C31G
DNA 1: CAATCTGAATTCCGGTCTCCC
DNA 2: TGGTGGCTACGACGGGATT
B6: UACGUUU (DNA:RNA)
RNA: B1 RNA with C25U, U27C, A28G, G29U, G30U, C31U
DNA 1: CAATCTGAATTCCGGTCTCCC
DNA 2: TGGTGGCTACGACGGGATT
B7: CGGUAAC (DNA:RNA)
RNA: B1 RNA with A26G, U27G, A28U, G29A, G30A
DNA 1: CAATCTGAATTCCGGTCTCCC
DNA 2: TGGTGGCTACGACGGGATT
B8: AUGGCUA (DNA:RNA)
RNA: GGGAGACCGGAAUUCAGAUUGUCCAUGGCUAUUAAAUCCCGUCGUAGCCACCA
DNA 1: CAATCTGAATTCCGGTCTCCC
DNA 2: TGGTGGCTACGACGGGATT
B9: CGGGUUC (DNA:RNA)
RNA: B8 RNA with A25C, U26G, C29U, A31C
DNA 1: CAATCTGAATTCCGGTCTCCC
DNA 2: TGGTGGCTACGACGGGATT
B10: UCAAGGC (DNA:RNA)
RNA: B1 RNA with C25U, A26C, U27A
DNA 1: CAATCTGAATTCCGGTCTCCC
DNA 2: TGGTGGCTACGACGGGATT
B11: CACAAUG (DNA:RNA)
RNA: B1 RNA with U27C, G29A, G30U, C31G
DNA 1: CAATCTGAATTCCGGTCTCCC
DNA 2: TGGTGGCTACGACGGGATT
B12: GCGCGCU (DNA:RNA)
RNA: B8 RNA with A25G, U26C, G28C, C29G, U30C, A31U
DNA 1: CAATCTGAATTCCGGTCTCCC
DNA 2: TGGTGGCTACGACGGGATT
B13: GGGUAGG (DNA:RNA)
RNA: B8 RNA with A25G, U26G, G28U, C29A, U30G, A31G
DNA 1: CAATCTGAATTCCGGTCTCCC
DNA 2: TGGTGGCTACGACGGGATT
B14: UCUUGCG (DNA:RNA)
RNA: B1 RNA with C25U, A26C, A28U, G30C, C31G
DNA 1: CAATCTGAATTCCGGTCTCCC
DNA 2: TGGTGGCTACGACGGGATT
B15: UAUAACU (DNA:RNA)
RNA: B1 RNA with C25U, G29A, G30C, C31U
DNA 1: CAATCTGAATTCCGGTCTCCC
DNA 2: TGGTGGCTACGACGGGATT
B16: GGCGGAC (DNA:RNA)
RNA: B1 RNA with C25G, A26G, U27C, A28G, G30A
DNA 1: CAATCTGAATTCCGGTCTCCC
DNA 2: TGGTGGCTACGACGGGATT
B17: CUUCGAU (DNA:RNA)
RNA: B1 RNA with A26U, A28C, G30A, C31U
DNA 1: CAATCTGAATTCCGGTCTCCC
DNA 2: TGGTGGCTACGACGGGATT
B18: UCACUGC (DNA:RNA)
RNA: B1 RNA with C25U, A26C, U27A, A28C, G29U
DNA 1: CAATCTGAATTCCGGTCTCCC
DNA 2: TGGTGGCTACGACGGGATT
B19: CGUUUGC (DNA:RNA)
RNA: B1 RNA with A26G, A28U, G29U
DNA 1: CAATCTGAATTCCGGTCTCCC
DNA 2: TGGTGGCTACGACGGGATT
B20: CAGUCCC (DNA:RNA)
RNA: B1 RNA with U27G, A28U, G29C, G30C
DNA 1: CAATCTGAATTCCGGTCTCCC
DNA 2: TGGTGGCTACGACGGGATT
B21: AUACAAC (DNA:RNA)
RNA: B8 RNA with G27A, G28C, C29A, U30A, A31C
DNA 1: CAATCTGAATTCCGGTCTCCC
DNA 2: TGGTGGCTACGACGGGATT
B22: GGUCUGG (DNA:RNA)
RNA: B1 RNA with C25G, A26G, A28C, G29U, C31G
DNA 1: CAATCTGAATTCCGGTCTCCC
DNA 2: TGGTGGCTACGACGGGATT
B23: CCGUGCC (DNA:RNA)
RNA: B1 RNA with A26C, U27G, A28U, G30C
DNA 1: CAATCTGAATTCCGGTCTCCC
DNA 2: TGGTGGCTACGACGGGATT
B24: CGAACCU (DNA:RNA)
RNA: B1 RNA with A26G, U27A, G29C, G30C, C31U
DNA 1: CAATCTGAATTCCGGTCTCCC
DNA 2: TGGTGGCTACGACGGGATT
B25: UCAACGU (DNA:RNA)
RNA: B1 RNA with C25U, A26C, U27A, G29C, C31U
DNA 1: CAATCTGAATTCCGGTCTCCC
DNA 2: TGGTGGCTACGACGGGATT
B26: CUUUACU (DNA:RNA)
RNA: B1 RNA with A26U, A28U, G29A, G30C, C31U
DNA 1: CAATCTGAATTCCGGTCTCCC
DNA 2: TGGTGGCTACGACGGGATT
B27: GAUCUAU (DNA:RNA)
RNA: B1 RNA with C25G, A28C, G29U, G30A, C31U
DNA 1: CAATCTGAATTCCGGTCTCCC
DNA 2: TGGTGGCTACGACGGGATT
B28: UGUCUAG (DNA:RNA)
RNA: B1 RNA with C25U, A26G, A28C, G29U, G30A, C31G
DNA 1: CAATCTGAATTCCGGTCTCCC
DNA 2: TGGTGGCTACGACGGGATT
B29: UAAUGCA (DNA:RNA)
RNA: B1 RNA with C25U, U27A, A28U, G30C, C31A
DNA 1: CAATCTGAATTCCGGTCTCCC
DNA 2: TGGTGGCTACGACGGGATT
B30: UUUUCGU (DNA:RNA)
RNA: B8 RNA with A25U, G27U, G28U, U30G, A31U
DNA 1: CAATCTGAATTCCGGTCTCCC
DNA 2: TGGTGGCTACGACGGGATT
B31: AUUUCCU (DNA:RNA)
RNA: B8 RNA with G27U, G28U, U30C, A31U
DNA 1: CAATCTGAATTCCGGTCTCCC
DNA 2: TGGTGGCTACGACGGGATT

The target of this assay is T1, RBFOX1 RRM. The assay can be described thus: EMSA; HiTS-Eq, 1 nM pool, 10 min; buffer printed only for the single-RNA assays: 10 mM Tris pH 7.5, 150 mM NaCl, 3.4 mM EDTA, 0.001% NP-40, 30 C. The conditions noted are these: tags: His6 N-terminal (pET28a); label: 5' 32P. Summed up:
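These values rest on relative association constants, computed from read-count changes of each RNA species versus the control reaction and normalised to the cognate motif. Reads came from free RNA recovered by 8% native PAGE after purified RbFox RRM (wild type or mutant) at increasing concentrations was equilibrated for 10 min in 50 µL with 1 nM of a 5′-radiolabelled pool with 7 randomized nucleotides and DNA-annealed flanks.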
Consider B1, for which the binding signal is 0.0055 KA relative to UGCAUGU.

In the case of B2, the binding signal was 0.0161 KA relative to UGCAUGU. For the molecule B3, the binding signal is 0.00677 KA relative to UGCAUGU. On to B4, for which the binding signal was 0.00411 KA relative to UGCAUGU. As for B5, the binding signal was 0.0125 KA relative to UGCAUGU. The value for B6 was 0.0131 KA relative to UGCAUGU. For the molecule B7, the binding signal was 0.00696 KA relative to UGCAUGU. The value for B8 was 0.0119 KA relative to UGCAUGU; that for B9 was 0.0418 KA relative to UGCAUGU.

For B10, the binding signal is 0.00829 KA relative to UGCAUGU. As to B11, the binding signal was 0.00478 KA relative to UGCAUGU.

For B12, the binding signal is 0.02 KA relative to UGCAUGU. With B13, the binding signal is 0.0151 KA relative to UGCAUGU. Regarding B14, the binding signal is 0.0155 KA relative to UGCAUGU. Take B15: the binding signal is 0.00214 KA relative to UGCAUGU. For B16, the binding signal was 0.016 KA relative to UGCAUGU. Regarding B17, the binding signal was 0.0134 KA relative to UGCAUGU. Take B18: the binding signal was 0.00873 KA relative to UGCAUGU.

Take B19: the binding signal was 0.019 KA relative to UGCAUGU. Take B20: the binding signal is 0.00229 KA relative to UGCAUGU. As to B21, the binding signal is 0.000475 KA relative to UGCAUGU. The result for B22 reads 0.0102 KA relative to UGCAUGU; that for B23, 0.0134 KA relative to UGCAUGU; that for B24, 0.00221 KA relative to UGCAUGU. B25: the binding signal was 0.00283 KA relative to UGCAUGU. The value for B26 was 0.00212 KA relative to UGCAUGU; that for B27 was 0.00589 KA relative to UGCAUGU. With B28, the binding signal is 0.0193 KA relative to UGCAUGU. The value for B29 was 0.0156 KA relative to UGCAUGU.

For the molecule B30, the binding signal is 0.0181 KA relative to UGCAUGU. In the case of B31, the binding signal is 0.00421 KA relative to UGCAUGU.

For the origin of these results see paper PMC9911399, “Two distinct binding modes provide the RNA-binding protein RbFox with extraordinary sequence specificity”.
